These results are taken from the BET-seq Pho4 binding data (Le et al. 2018).

The list shows a part of the results. The energies were worked out here from pooled read counts, against the library average; single values are noisy.

The target of the assay is T1, Pho4 (S. cerevisiae) (UniProt P07270).
T1 sequence: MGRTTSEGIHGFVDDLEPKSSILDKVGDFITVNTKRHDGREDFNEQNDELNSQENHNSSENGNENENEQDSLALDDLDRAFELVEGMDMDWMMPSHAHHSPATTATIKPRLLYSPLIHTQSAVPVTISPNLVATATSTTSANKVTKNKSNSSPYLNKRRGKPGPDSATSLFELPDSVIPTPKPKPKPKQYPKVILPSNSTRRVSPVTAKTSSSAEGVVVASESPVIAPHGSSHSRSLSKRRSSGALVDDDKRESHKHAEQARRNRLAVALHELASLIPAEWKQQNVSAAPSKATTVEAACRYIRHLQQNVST
Put plainly: relative binding free energy (BET-seq); higher = weaker binding. The following applies: reference: library average.
In the case of TTAGGCACGTGATGGG, the “relative binding free energy” value is -0.01 kcal/mol.
Under GGTTTCACGTGGCATG stands 0.2 kcal/mol; under CTTGTCACGTGATATA, 0.24 kcal/mol.
Consider ATAGACACGTGGCGTT, for which the “relative binding free energy” value is -0.04 kcal/mol.
For the sequence TTATACACGTGATGTT, the “relative binding free energy” value was determined as 0.04 kcal/mol.
Under TGTAACACGTGATAGG stands 0.05 kcal/mol; under TTGTACACGTGATAAG, 0.26 kcal/mol; under GGTGCCACGTGTGAAT, -0.02 kcal/mol.
On to TAGGGCACGTGATGTT, for which the “relative binding free energy” value amounted to 0.06 kcal/mol.
Regarding ACTTTCACGTGGTTGG, the “relative binding free energy” value was 0.21 kcal/mol.
Under TGGCGCACGTGCTGGT stands -0.09 kcal/mol.
Then TGGTACACGTGTGATC, with 0.15 kcal/mol; and TGTAGCACGTGAGTCT, with 0.1 kcal/mol.
Under GATGGCACGTGCGAGG stands -0.01 kcal/mol.
In the case of GTATCCACGTGTCGGG, the “relative binding free energy” value was determined as 0.19 kcal/mol.
Take TTCTGCACGTGTTGTC: the “relative binding free energy” value amounted to 0.06 kcal/mol.
As to TAGCCCACGTGTGGGG, the “relative binding free energy” value was -0.1 kcal/mol.
On to GGGATCACGTGCTAGT, for which the “relative binding free energy” value was 0.11 kcal/mol.
For ATAAGCACGTGCTGTT, the “relative binding free energy” value is -0.15 kcal/mol.
Under GAGGTCACGTGTGAAG stands 0.12 kcal/mol.
Then TATATCACGTGGTTAC, with 0.13 kcal/mol; and GTTTTCACGTGAGATC, with 0.38 kcal/mol; and TAGGGCACGTGAAGGT, with 0.15 kcal/mol.
Under TTGTGCACGTGATAAG stands 0.2 kcal/mol; under CTACTCACGTGGGGTG, 0.03 kcal/mol.
ATAATCACGTGTAGCG: the “relative binding free energy” value was 0.15 kcal/mol.
On to TGGGTCACGTGCGGAG, for which the “relative binding free energy” value was -0.05 kcal/mol.
Then TGTGTCACGTGAAACT, with 0.2 kcal/mol; and ATTGGCACGTGAGAGA, with 0.1 kcal/mol.
Consider AAGGTCACGTGATGAG, for which the “relative binding free energy” value was determined as 0.29 kcal/mol.
Under TATTGCACGTGGGTCG stands -0.22 kcal/mol.
In the case of ATATGCACGTGTATTA, the “relative binding free energy” value was -0.02 kcal/mol.
Consider TGTGTCACGTGTATGA, for which the “relative binding free energy” value stood at 0.1 kcal/mol.
TGCTTCACGTGGGGTG: the “relative binding free energy” value was found to be 0.07 kcal/mol.
For the sequence CGTAACACGTGGGGTC, the “relative binding free energy” value was -0.17 kcal/mol.
For the sequence CATAGCACGTGGGATT, the “relative binding free energy” value was -0.09 kcal/mol.
Under GCTGTCACGTGTGATG stands 0.14 kcal/mol; under CAAGACACGTGTGTGT, 0.04 kcal/mol; under AGTTACACGTGCGGGA, 0.07 kcal/mol.
With CGGTTCACGTGATTTG, the “relative binding free energy” value worked out at 0.35 kcal/mol.
Under TGTTACACGTGGAAGA stands 0.23 kcal/mol; under AAGTCCACGTGTTTGT, -0.03 kcal/mol; under TGGCGCACGTGCGGAT, -0.04 kcal/mol.
On to TGTATCACGTGTATAG, for which the “relative binding free energy” value came out at 0.11 kcal/mol.
With TTAGCCACGTGATCGG, the “relative binding free energy” value came out at 0.1 kcal/mol.
Then CTGGGCACGTGCGGTC, with -0.18 kcal/mol.
Then TCGTTCACGTGAGATA, with 0.56 kcal/mol.
Then TCAGGCACGTGTAGGG, with -0.05 kcal/mol; and TCTAGCACGTGTTGAT, with 0 kcal/mol.
Regarding GTTCACACGTGGGGGA, the “relative binding free energy” value came out at 0.09 kcal/mol.
Under TGAGGCACGTGGGCAG stands -0.26 kcal/mol.
Consider CCGGTCACGTGGCGGG, for which the “relative binding free energy” value worked out at 0.09 kcal/mol.
As to CGTTGCACGTGTTGTT, the “relative binding free energy” value was -0.07 kcal/mol.
In the case of TCTGTCACGTGGGGCA, the “relative binding free energy” value is -0.06 kcal/mol.
Under TTATGCACGTGTGTAG stands 0.06 kcal/mol; under CTCTACACGTGGTTGG, 0.03 kcal/mol.
Then TAGGGCACGTGGTCCT, with -0.21 kcal/mol.
As to TTGAGCACGTGCATTT, the “relative binding free energy” value came out at 0 kcal/mol.
Then TGACGCACGTGTGAGG, with 0.01 kcal/mol; and AAGGGCACGTGAGGCT, with -0.08 kcal/mol.
Then ATGGCCACGTGCAGGG, with -0.12 kcal/mol.
Under AAGGGCACGTGTGGGG stands -0.03 kcal/mol; under GAGGTCACGTGGGCCG, -0.05 kcal/mol.
In the case of TTCTGCACGTGTGGAT, the “relative binding free energy” value is -0.06 kcal/mol.
Consider TATTGCACGTGATGTC, for which the “relative binding free energy” value was 0.18 kcal/mol.
Turning to CCTTTCACGTGGTGGT, the “relative binding free energy” value stood at 0.14 kcal/mol.
Then TATGGCACGTGTTGGA, with -0.05 kcal/mol; and CAAGTCACGTGGGATG, with 0.08 kcal/mol; and CTGGACACGTGTTCGG, with 0.02 kcal/mol.
Under GATGACACGTGTGTGT stands 0.05 kcal/mol; under CCAGTCACGTGGGGAG, 0.01 kcal/mol; under TTAATCACGTGTAATA, 0.17 kcal/mol.
For the sequence GTGAGCACGTGGGTAT, the “relative binding free energy” value was -0.15 kcal/mol.
Under AGGGGCACGTGCGAGC stands -0.23 kcal/mol.
Consider TTAGTCACGTGAGTCA, for which the “relative binding free energy” value came out at 0.29 kcal/mol.
Under GTTAACACGTGTTCTG stands 0.13 kcal/mol; under GGTGGCACGTGATAGG, 0.05 kcal/mol.
Then CAGTACACGTGTTGTG, with 0.04 kcal/mol.
Regarding CTAGTCACGTGGTTGT, the “relative binding free energy” value worked out at 0.01 kcal/mol.
Then TGTATCACGTGACGGG, with 0.33 kcal/mol; and TGTCTCACGTGCTGTT, with 0.16 kcal/mol; and GCGAGCACGTGGAGGT, with -0.12 kcal/mol.
Then TGGCACACGTGTAGGA, with 0.03 kcal/mol; and ATTTACACGTGAGTGG, with 0.34 kcal/mol.
Under ACATTCACGTGGGTGG stands 0.09 kcal/mol; under TGGCACACGTGGGGGC, 0.05 kcal/mol; under GGGGCCACGTGTGGTC, -0.04 kcal/mol.
Take TCATTCACGTGTGATG: the “relative binding free energy” value came out at 0.19 kcal/mol.
For GTGTTCACGTGTGGAG, the “relative binding free energy” value is 0.36 kcal/mol.
In the case of CTAGGCACGTGGTTCG, the “relative binding free energy” value was -0.24 kcal/mol.
Then GTTGGCACGTGGAGCC, with -0.06 kcal/mol; and AGTTACACGTGTTTGC, with 0.08 kcal/mol.
Under TCAATCACGTGGGTGA stands 0.19 kcal/mol; under GTCTGCACGTGCGAGG, 0.01 kcal/mol.
Regarding GACTTCACGTGTAGGG, the “relative binding free energy” value was 0.22 kcal/mol.
Then TTAATCACGTGGGCGT, with 0.05 kcal/mol; and GCAGGCACGTGGGGTA, with -0.29 kcal/mol; and TCGGCCACGTGTGGGT, with -0.02 kcal/mol.
Under TTTTTCACGTGGCACA stands 0.18 kcal/mol; under ATTGGCACGTGGCGGA, -0.12 kcal/mol.
Under GATGACACGTGAGCGT stands 0.18 kcal/mol; under GCAGTCACGTGTCGGG, 0.15 kcal/mol.
Regarding TTTTTCACGTGCGTTG, the “relative binding free energy” value was 0.27 kcal/mol.
On to GAGGTCACGTGTGGAT, for which the “relative binding free energy” value amounted to 0.24 kcal/mol.
For AGCAGCACGTGTTTGT, the “relative binding free energy” value was -0.14 kcal/mol.
Under GGTGACACGTGCAGGT stands 0.02 kcal/mol.
As to GGATCCACGTGTTTTG, the “relative binding free energy” value amounted to 0.1 kcal/mol.
On to GGTTACACGTGGGCTT, for which the “relative binding free energy” value was 0.05 kcal/mol.
Then TTGTTCACGTGCTGGA, with 0.29 kcal/mol; and GGAGGCACGTGGTCTT, with -0.24 kcal/mol.
As to TCTATCACGTGCGTGT, the “relative binding free energy” value stood at 0.08 kcal/mol.
Under TTGGTCACGTGGCGTA stands -0.07 kcal/mol; under AATGTCACGTGATCTG, 0.19 kcal/mol.
With ATGAGCACGTGCGGTG, the “relative binding free energy” value is -0.2 kcal/mol.
Then CGAGACACGTGTTGTG, with -0.13 kcal/mol.
